# Where “and” joins values, the source holds several entries; their conditions need not be identical. Equal values may be shown once. Inconclusive means that the source gave no clear call. Such entries were picked first, then a sample of the others. For part of these data: Potencies of inconclusive entries are left out as doubtful fits. Some structures have more than one record in an assay (separate samples or runs), and their calls can disagree. Calls of active or inactive are those of the source. Unless noted, calls come from the whole dose curve; as a rule, active = well fitted curve in the direction sought with a large enough effect in the repeat runs; inconclusive = weak or mixed curves; inactive = no such curve, though single readings can be large; an effect the other way counts as inactive or inconclusive.
# How the values were obtained:
# [1] = qHTS assay to identify small molecule antagonists of the estrogen receptor alpha (ER-alpha) signaling pathway - cell viability counter screen (AID 743074; calls by dose curve;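 note: HEK293 cells carrying ER-alpha-UAS-bla reporter stimulated with 17beta-estradiol; nearly all actives have a fitted effect of over 45% in size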; note: potency is the fitted concentration of half-maximal effect; for activity, negative = cytotoxicity: % is set by controls: 0 for no effect and ±100 for the full control effect)
# [2] = target: Estrogen receptor (Homo sapiens) (UniProt P03372); assay: qHTS assay to identify small molecule agonists of the estrogen receptor alpha (ER-alpha) signaling pathway using the BG1 cell line (AID 743079); settings: BG1Luc4E2 cells, ERE-luciferase agonist, 22 h; activation: at 70.3 µM (top of the series) unless noted; note: % is set by controls: 0 for no effect and ±100 for the full control effect; nearly all actives have a fitted effect of over 20% in size
# Sequence of UniProt P03372 (P03372 whole entry, looked up): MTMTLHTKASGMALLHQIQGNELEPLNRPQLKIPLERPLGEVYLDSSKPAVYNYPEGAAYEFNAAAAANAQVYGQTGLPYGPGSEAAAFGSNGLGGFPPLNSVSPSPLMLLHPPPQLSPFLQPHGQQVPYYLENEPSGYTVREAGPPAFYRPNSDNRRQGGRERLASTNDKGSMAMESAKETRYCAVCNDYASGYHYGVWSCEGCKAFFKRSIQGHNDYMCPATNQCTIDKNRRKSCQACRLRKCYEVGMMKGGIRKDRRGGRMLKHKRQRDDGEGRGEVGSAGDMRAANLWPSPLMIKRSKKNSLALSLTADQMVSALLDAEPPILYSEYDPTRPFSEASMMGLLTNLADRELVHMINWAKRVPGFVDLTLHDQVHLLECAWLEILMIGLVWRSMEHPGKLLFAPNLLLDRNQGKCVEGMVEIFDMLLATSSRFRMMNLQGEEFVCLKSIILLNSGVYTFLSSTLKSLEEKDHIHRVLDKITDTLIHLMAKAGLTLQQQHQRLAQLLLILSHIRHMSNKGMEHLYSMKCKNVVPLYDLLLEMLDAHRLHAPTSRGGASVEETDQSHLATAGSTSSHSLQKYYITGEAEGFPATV
# [3] = target: Peroxisome proliferator-activated receptor gamma (Homo sapiens) (UniProt P37231); assay: qHTS assay to identify small molecule antagonists of the peroxisome proliferator-activated receptor gamma (PPARg) signaling pathway (AID 743191; calls by dose curve; note: nearly all actives have a fitted effect of over 30% in size; note: potency is the fitted concentration of half-maximal effect; for ratio activity, negative = inhibition: % is set by controls: 0 for no effect and ±100 for the full control effect); settings: HEK293H PPARg-UAS-bla, beta-lactamase ratio, antagonist, 17 h; ratio activity, negative = inhibition: at 62.6 µM (top of the series) unless noted
# Sequence of UniProt P37231 (P37231 whole entry, looked up): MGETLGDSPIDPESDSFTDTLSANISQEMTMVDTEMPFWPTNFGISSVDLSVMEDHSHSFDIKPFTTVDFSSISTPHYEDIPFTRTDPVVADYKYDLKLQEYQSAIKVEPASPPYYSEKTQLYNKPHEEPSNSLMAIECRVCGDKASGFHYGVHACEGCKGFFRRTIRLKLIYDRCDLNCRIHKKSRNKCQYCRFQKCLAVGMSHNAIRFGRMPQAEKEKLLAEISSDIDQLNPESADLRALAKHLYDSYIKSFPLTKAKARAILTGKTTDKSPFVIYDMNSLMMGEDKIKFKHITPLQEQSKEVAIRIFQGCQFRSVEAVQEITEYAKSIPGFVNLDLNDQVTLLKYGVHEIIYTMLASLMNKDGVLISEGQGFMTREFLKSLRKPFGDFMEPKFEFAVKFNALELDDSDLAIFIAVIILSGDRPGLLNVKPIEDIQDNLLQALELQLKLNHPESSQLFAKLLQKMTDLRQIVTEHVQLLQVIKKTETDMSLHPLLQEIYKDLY
# How it was run: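 Beta-lactamase reporter under UAS control in HEK293H PPARg-bla cells; compound treatment 17 h at 37C. Read-out: fluorescence intensity after 1 h room-temperature incubation with LiveBLAzer B/G FRET substrate.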
# [4] = qHTS assay for small molecule agonists of the antioxidant response element (ARE) signaling pathway (AID 743202; active = well fitted activation curve with a large enough effect in the signal ratio in the repeat runs, not every such curve was filed as active; inconclusive = weak or mixed curves, or effect the other way; inactive = no such curve, though single readings can be large or run the other way; the % refers to the signal ratio; note: potency is the fitted concentration of half-maximal effect; for activation: % is set by controls: 0 for no effect and ±100 for the full control effect); settings: HepG2 ARE-bla reporter, beta-lactamase FRET, 16 h; activation: at 73.3 µM (top of the series) unless noted
# How it was run: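 Quantitative high-throughput format in HepG2 cells bearing an integrated ARE-beta-lactamase reporter. Compound exposure lasted 16 h at 37 C, and fluorescence was read 2 h after adding LiveBLAzer B/G substrate at room temperature.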
# [5] = qHTS assay to identify small molecule antagonists of the peroxisome proliferator-activated receptor delta (PPARd) signaling pathway - cell viability counter screen (AID 743213); settings: PPARd-bla HEK293H viability, CellTiter-Glo luminescence, 17 h; viability change, negative = cytotoxic: at 62 µM (top of the series) unless noted; note: % is set by controls: 0 for no effect and ±100 for the full control effect; nearly all actives have a fitted effect of over 50% in size
# How it was run: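 Viability counter-screen, qHTS format: PPARd-bla HEK293H, L165041 300 nM final, 17 h compound exposure at 37 C, CellTiter-Glo luminescence after 30 min RT.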
# [6] = target: Retinoic acid receptor RXR-alpha (Homo sapiens) (UniProt P19793); assay: qHTS assay to identify small molecule agonists of the RXR signaling pathway (AID 1159527; calls by dose curve; note: nearly all actives have a fitted effect of over 35% in size; note: potency is the fitted concentration of half-maximal effect); settings: HEK293T RXRa-UAS-bla, beta-lactamase ratio, 16 h; activation: at 76.8 µM (top of the series) unless noted
# Sequence of UniProt P19793 (P19793 whole entry, looked up): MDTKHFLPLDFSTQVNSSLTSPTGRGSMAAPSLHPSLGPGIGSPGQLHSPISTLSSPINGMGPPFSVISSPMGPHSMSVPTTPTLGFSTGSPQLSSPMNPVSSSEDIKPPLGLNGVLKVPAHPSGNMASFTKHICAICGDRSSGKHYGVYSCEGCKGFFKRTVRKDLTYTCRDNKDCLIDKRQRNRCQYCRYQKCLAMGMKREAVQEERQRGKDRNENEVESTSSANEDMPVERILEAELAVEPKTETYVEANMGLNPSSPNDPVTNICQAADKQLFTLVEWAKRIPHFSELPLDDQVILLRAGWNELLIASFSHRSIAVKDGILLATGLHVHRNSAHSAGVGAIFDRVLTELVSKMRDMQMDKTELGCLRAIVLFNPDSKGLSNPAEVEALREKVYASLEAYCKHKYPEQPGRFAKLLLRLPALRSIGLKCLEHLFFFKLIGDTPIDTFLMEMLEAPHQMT
# How it was run: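 Cells plated at 2,000/well, rested 5 hr at 37 C, pin-dosed with DMSO compound solutions, incubated 16 hr, then loaded with B/G FRET substrate for 2 hr at RT before dual-emission fluorescence reading.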
# [7] = target: Cytochrome P450 2D6 (Homo sapiens) (UniProt P10635); assay: Cytochrome P450 Family 2 Subfamily D Member 6 (CYP2D6) small molecule antagonists: luciferase reporter qHTS assay (AID 1671196); note: nearly all actives have a fitted effect of over 50% in size; note: potency is the fitted concentration of half-maximal effect
# Sequence of UniProt P10635 (P10635 whole entry, looked up): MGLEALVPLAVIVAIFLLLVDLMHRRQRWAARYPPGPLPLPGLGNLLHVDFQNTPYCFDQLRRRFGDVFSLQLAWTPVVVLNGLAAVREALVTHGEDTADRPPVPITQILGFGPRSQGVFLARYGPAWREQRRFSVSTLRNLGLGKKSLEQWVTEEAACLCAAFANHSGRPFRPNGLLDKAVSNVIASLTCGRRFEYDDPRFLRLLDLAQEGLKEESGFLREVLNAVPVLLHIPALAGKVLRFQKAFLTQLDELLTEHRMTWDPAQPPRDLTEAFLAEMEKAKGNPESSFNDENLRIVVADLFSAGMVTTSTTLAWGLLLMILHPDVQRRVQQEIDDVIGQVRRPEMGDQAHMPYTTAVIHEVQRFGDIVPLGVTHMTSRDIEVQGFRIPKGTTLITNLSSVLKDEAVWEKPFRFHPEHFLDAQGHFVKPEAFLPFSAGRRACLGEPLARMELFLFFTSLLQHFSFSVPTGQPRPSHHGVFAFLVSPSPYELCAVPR
# How it was run: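 Inhibition of CYP2D6 was gauged by loss of luminescence, since light produced tracks the luciferin generated from a proluciferin substrate. A 10 min room-temperature preincubation preceded 1 h NADPH-supported turnover.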
# [8] = qHTS assay for identifying genotoxic compounds that show differential cytotoxicity against isogenic chicken DT40 cell lines with known DNA damage response pathways - Rev3 mutant cell line (AID 743014); settings: chicken DT40 Rev3-/- viability, CellTiter-Glo, 40 h; activity, negative = cytotoxicity: at 68.4 µM (top of the series); note: % is set by controls: 0 for no effect and ±100 for the full control effect; nearly all actives have a fitted effect of over 55% in size
# [9] = qHTS assay to identify small molecule agonists of the retinoic acid receptor (RAR) signaling pathway (AID 1159553); settings: C3RL4 RARE luciferase reporter, agonist, 6 h; activation: at 73.3 µM (top of the series) unless noted; note: potency is the fitted concentration of half-maximal effect
# How it was run: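 Cell line C3RL4, RARE luciferase reporter. Treatment: compounds in DMSO, 6 hr, 37 C, 5% CO2, after overnight plating. Detection: luminescence, 30 min RT after reagent.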
# [10] = target: Progesterone receptor (Homo sapiens) (UniProt P06401); assay: qHTS assay to identify small molecule antagonists of the progesterone receptor (PR) signaling pathway (AID 1346795; active = well fitted inhibition curve with a large enough effect in the signal ratio in the repeat runs, not every such curve was filed as active; inconclusive = weak or mixed curves; the % refers to the signal ratio; note: potency is the fitted concentration of half-maximal effect); settings: PR-UAS-bla HEK293T, beta-lactamase FRET ratio, 16 h; activity change, negative = inhibition: at 92.4 µM (top of the series) unless noted
# Sequence of UniProt P06401 (P06401 whole entry, looked up): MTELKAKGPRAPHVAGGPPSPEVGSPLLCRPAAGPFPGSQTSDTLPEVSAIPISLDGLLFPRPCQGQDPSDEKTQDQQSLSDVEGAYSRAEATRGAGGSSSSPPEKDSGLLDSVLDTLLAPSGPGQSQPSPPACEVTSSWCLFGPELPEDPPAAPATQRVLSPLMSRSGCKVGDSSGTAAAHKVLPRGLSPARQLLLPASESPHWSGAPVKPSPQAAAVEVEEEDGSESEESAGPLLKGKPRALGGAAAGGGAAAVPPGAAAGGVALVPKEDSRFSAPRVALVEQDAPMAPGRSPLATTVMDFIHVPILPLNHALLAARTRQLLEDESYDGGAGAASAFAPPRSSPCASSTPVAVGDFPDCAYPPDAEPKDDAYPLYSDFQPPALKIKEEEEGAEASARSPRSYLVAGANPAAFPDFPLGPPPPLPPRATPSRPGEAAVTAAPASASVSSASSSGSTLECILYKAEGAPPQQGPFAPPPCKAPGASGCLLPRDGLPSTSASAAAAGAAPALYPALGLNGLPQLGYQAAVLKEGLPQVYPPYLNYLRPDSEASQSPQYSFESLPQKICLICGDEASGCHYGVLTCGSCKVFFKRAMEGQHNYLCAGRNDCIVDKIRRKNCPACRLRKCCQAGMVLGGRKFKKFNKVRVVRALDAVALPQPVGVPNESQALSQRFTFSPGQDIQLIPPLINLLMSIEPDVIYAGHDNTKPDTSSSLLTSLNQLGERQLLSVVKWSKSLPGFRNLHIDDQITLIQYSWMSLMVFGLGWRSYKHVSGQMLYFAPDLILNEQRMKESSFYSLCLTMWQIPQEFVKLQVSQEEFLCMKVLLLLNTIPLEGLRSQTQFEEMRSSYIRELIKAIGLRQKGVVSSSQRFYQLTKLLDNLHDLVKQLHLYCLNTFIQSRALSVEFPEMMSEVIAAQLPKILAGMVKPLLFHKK
# How it was run: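 Antagonist mode: compounds tested against 1 nM (final) promegestone stimulation in HEK293T cells expressing PR-UAS-bla reporter, 16 hr at 37C, 5% CO2; beta-lactamase activity detected via B/G FRET substrate after 2 hr at room temperature.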
# [11] = Caspase-3/7 induction in CHO-K1 cells by small molecules, qHTS cell viability counter screen (AID 1346979); note: potency is the fitted concentration of half-maximal effect; nearly all actives have a fitted effect of over 35% in size
# How it was run: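 Cytotoxicity counter screen run in parallel with the caspase-3/7 assay: CHO-K1 cells, 16hr compound treatment at 37C, then CellTiter-Fluor for 1hr before fluorescence reading.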
# [12] = qHTS assay for small molecule disruptors of the mitochondrial membrane potential (AID 720635); settings: HepG2 mitochondrial membrane potential, Mito-MPS dye ratio; ratio activity, negative = MMP loss: at 83.2 µM (top of the series) unless noted; note: potency is the fitted concentration of half-maximal effect
# How it was run: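 Mitochondrial membrane potential tracked with Mito-MPS dye, red aggregates (ex 540/em 590 nm) against green monomers (ex 490/em 535 nm). Compound treatment 1 hr at 37C, dye 30 min in HepG2.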
# [13] = qHTS assay for identifying genotoxic compounds that show differential cytotoxicity against isogenic chicken DT40 cell lines with known DNA damage response pathways - wild type cell line (AID 743012); settings: DT40 wild type chicken cells viability, CellTiter-Glo, 40 h; activity change, negative = cytotoxicity: at 68.4 µM (top of the series) unless noted; note: potency is the fitted concentration of half-maximal effect; nearly all actives have a fitted effect of over 60% in size
# How it was run: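 Quantitative HTS on parental DT40 cells: 40 h compound treatment at 37 C/5% CO2, with viability then determined by CellTiter-Glo luminescence. Values serve as the DNA repair-proficient reference for differential cytotoxicity.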
# [14] = target: Estrogen receptor beta (Homo sapiens) (UniProt Q92731); assay: qHTS assay to identify small molecule antagonists of the estrogen receptor beta (ER-beta) signaling pathway (AID 1259378; active = well fitted inhibition curve with a large enough effect in the signal ratio in the repeat runs, not every such curve was filed as active; inconclusive = weak or mixed curves, or effect the other way; inactive = no such curve, though single readings can be large or run the other way; the % refers to the signal ratio; note: % is set by controls: 0 for no effect and ±100 for the full control effect); settings: ER-beta-UAS-bla HEK293T, beta-lactamase FRET ratio, 16 h; activity, negative = inhibition: at 92.4 µM (top of the series) unless noted
# Sequence of UniProt Q92731 (Q92731 whole entry, looked up): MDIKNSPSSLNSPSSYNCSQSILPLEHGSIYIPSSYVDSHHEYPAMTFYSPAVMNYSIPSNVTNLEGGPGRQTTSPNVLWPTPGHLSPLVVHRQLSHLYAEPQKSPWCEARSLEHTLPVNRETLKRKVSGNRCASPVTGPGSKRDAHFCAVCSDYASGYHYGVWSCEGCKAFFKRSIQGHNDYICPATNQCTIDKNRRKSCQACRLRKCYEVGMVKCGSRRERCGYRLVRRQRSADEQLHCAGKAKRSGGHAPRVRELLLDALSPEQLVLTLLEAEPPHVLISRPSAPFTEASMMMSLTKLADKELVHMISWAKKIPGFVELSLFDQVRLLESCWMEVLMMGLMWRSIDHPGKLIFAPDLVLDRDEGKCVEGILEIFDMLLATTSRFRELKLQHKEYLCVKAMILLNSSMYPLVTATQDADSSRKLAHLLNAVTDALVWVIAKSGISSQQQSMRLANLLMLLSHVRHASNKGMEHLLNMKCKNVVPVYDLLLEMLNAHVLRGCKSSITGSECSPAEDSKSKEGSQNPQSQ
# How it was run: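 Antagonist mode: compounds added to beta-lactamase reporter HEK293T ER-beta-UAS cells stimulated with E2 (1nM final), 16 hr at 37C. LiveBLAzer B/G FRET substrate, 2 hours room temperature, fluorescence read-out.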
# [15] = target: Cytochrome P450 2C9 (Homo sapiens) (UniProt P11712); assay: Cytochrome P450 Family 2 Subfamily C Member 9 (CYP2C9) small molecule antagonists: luciferase reporter qHTS assay (AID 1671198); note: potency is the fitted concentration of half-maximal effect; nearly all actives have a fitted effect of over 50% in size
# How it was run: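 Enzyme-substrate mix preincubated with compound 10 min at room temperature; reaction started with NADPH regeneration solution, 1 h 37C. Luminescent luciferin product read after 20 min detection reagent.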
# [16] = target: Cytochrome P450 1A2 (Homo sapiens) (UniProt P05177); assay: Cytochrome P450 Family 1 Subfamily A Member 2 (CYP1A2) small molecule antagonists: luciferase reporter qHTS assay (AID 1671199); note: nearly all actives have a fitted effect of over 50% in size; note: potency is the fitted concentration of half-maximal effect
# Sequence of UniProt P05177 (P05177 whole entry, looked up): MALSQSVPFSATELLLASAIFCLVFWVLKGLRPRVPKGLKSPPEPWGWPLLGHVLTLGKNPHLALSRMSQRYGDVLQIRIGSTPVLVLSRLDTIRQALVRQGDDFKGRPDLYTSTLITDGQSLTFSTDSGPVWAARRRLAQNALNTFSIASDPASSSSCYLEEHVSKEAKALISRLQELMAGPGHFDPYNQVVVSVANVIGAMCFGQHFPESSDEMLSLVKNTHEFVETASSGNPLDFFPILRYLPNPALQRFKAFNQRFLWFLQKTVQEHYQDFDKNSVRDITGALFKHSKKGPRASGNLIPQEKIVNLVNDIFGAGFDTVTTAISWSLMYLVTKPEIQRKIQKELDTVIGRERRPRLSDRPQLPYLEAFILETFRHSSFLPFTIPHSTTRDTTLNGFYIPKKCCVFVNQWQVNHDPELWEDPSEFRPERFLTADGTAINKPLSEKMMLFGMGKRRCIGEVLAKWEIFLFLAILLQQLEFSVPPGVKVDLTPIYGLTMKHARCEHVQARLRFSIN
# How it was run: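 Signal from luciferin formed by CYP1A2 from a proluciferin substrate is read as luminescence, expressed in relative luminescence units. Compounds sit with enzyme 10 min, NADPH-driven reaction runs 1 h, all at room temperature.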
# [17] = qHTS assay to identify small molecule antagonists of the thyroid receptor (TR) signaling pathway - cell viability counter screen (AID 743064); settings: GH3.TRE-Luc viability, CellTiter-Fluor, 24 h; activity change, negative = cytotoxic: at 70.3 µM (top of the series) unless noted
# How it was run: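 Rat GH3 pituitary tumor cells stably expressing two TR response elements driving luciferase were plated, rested 4 h, then dosed with library compounds and T3 (1 nM final). After 23.5 h at 37 °C, CellTiter-Fluor was added for 30 min and fluorescence recorded.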
# [18] = target: Vitamin D3 receptor (Homo sapiens) (UniProt P11473); assay: qHTS assay to identify small molecule antagonists of the vitamin D receptor (VDR) signaling pathway (AID 743223; active = well fitted inhibition curve with a large enough effect in the signal ratio in the repeat runs, not every such curve was filed as active; inconclusive = weak or mixed curves, or effect the other way; inactive = no such curve, though single readings can be large or run the other way; the % refers to the signal ratio; note: potency is the fitted concentration of half-maximal effect); settings: VDR-UAS-bla HEK293T, beta-lactamase FRET ratio, 16 h; activity change, negative = inhibition: at 61 µM (top of the series) unless noted
# Sequence of UniProt P11473 (P11473 whole entry, looked up): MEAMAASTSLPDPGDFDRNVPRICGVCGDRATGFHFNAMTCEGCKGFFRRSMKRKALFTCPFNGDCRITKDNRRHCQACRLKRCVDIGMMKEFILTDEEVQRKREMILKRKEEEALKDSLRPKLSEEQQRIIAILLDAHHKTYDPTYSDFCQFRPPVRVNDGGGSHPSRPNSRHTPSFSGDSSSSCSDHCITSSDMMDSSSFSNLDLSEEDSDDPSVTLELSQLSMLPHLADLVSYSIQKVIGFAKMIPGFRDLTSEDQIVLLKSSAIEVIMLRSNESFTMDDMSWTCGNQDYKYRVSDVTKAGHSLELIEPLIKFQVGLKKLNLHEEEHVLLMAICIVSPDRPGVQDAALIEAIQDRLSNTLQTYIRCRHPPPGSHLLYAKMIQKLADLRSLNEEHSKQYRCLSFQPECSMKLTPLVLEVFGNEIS
# How it was run: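 Cells carrying a VDR-driven beta-lactamase reporter (VDR-bla) were co-treated with compound and 3 nM final 1alpha,25-dihydroxyvitamin D3 for 16 h at 37C; reporter activity was measured as FRET substrate fluorescence after 2 h at room temperature.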
# [19] = target: Cytochrome P450 2C19 (Homo sapiens) (UniProt P33261); assay: Cytochrome P450 Family 2 Subfamily C Member 19 (CYP2C19) small molecule antagonists: luciferase reporter qHTS assay (AID 1671197); note: nearly all actives have a fitted effect of over 65% in size; note: potency is the fitted concentration of half-maximal effect
# Sequence of UniProt P33261 (P33261 whole entry, looked up): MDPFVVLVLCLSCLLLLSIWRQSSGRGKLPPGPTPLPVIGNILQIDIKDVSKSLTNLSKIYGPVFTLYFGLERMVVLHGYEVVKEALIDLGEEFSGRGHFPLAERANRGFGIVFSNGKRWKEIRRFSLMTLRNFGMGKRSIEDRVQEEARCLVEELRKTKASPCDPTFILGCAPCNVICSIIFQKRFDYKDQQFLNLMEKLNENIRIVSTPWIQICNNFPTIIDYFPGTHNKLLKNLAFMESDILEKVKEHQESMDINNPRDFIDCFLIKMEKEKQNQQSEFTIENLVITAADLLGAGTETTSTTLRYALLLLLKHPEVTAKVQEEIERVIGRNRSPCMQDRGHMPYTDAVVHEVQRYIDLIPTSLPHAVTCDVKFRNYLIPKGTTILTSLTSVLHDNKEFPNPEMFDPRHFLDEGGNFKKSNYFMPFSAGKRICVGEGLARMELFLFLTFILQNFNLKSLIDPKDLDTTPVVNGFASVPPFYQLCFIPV
# How it was run: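 Inhibition of CYP2C19 was scored from loss of luminescence in a P450-Glo proluciferin substrate assay, NADPH-started and run 1 h at 37C, with ketoconazole as positive control.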
# Tags give direction and shape of the fitted curve or compound fluorescence and quenching.
smiles,measurement,setting,value
CCCBr,Potency,[1],inactive
same,Potency,[2],inactive
same,"ratio activity, negative = inhibition",[3],inconclusive: 10.6%
same,Potency,[4],inactive
same,Potency,[5],inactive
same,Potency,[6],"inconclusive [activator, partial curve, poor fit]"
same,Potency,[7],"inconclusive [inhibitor, single point]"
O=c1[nH]oc2c1CCNC2,Potency,[8],inactive
same,Potency,[2],inactive
same,Potency,[6],inactive
same,Potency,[9],inactive
same,Potency,[10],inactive
same,Potency,[11],"inconclusive [rising, partial curve, poor fit]"
same,Potency,[7],inactive
O=C(Nc1ccccc1)c1ccccc1I,Potency,[12],inconclusive [inhibitor]
same,Potency,[13],active: 48.6 µM
same,Potency,[1],inactive
same,"ratio activity, negative = inhibition",[3],inconclusive: -22.4%
same,Potency,[4],active: 21.7 µM
same,activation,[6],inconclusive: -28.3%
same,Potency,[9],"inconclusive [activator, partial curve, poor fit]"
same,"activity, negative = inhibition",[14],inconclusive: -24.6%
same,Potency,[10],active: 54.5 µM
same,Potency,[11],"inconclusive [cytotoxic, partial curve]"
same,Potency,[15],active: 39.9 µM
same,Potency,[16],active: 20 µM
CS(=O)(=O)NC(=O)c1cc(Oc2ccc(C(F)(F)F)cc2Cl)ccc1[N+](=O)[O-],Potency,[17],"inconclusive [rising, partial curve, poor fit]"
same,Potency,[1],"inconclusive [cytotoxic, full curve, poor fit]"
same,Potency,[3],"inconclusive [inhibitor, partial curve]"
same,"ratio activity, negative = inhibition",[3],inconclusive: -66.6%
same,Potency,[18],"inconclusive [fluorescent, partial curve, poor fit]"
same,"activity change, negative = inhibition",[18],inconclusive: 26.9%
same,Potency,[6],inactive
same,"activity, negative = inhibition",[14],inconclusive: -36.2% and inconclusive: -24.8%
same,Potency,[10],inconclusive [partial curve]
same,Potency,[19],inactive and active: 79.6 µM
same,Potency,[16],inconclusive [inhibitor] and inactive
Oc1ccc(I)cc1,Potency,[6],inactive
same,"activity, negative = inhibition",[14],inconclusive: -26.9%
same,Potency,[10],active: 61.1 µM
same,Potency,[7],"inconclusive [inhibitor, partial curve]"
same,Potency,[19],"inconclusive [inhibitor, single point]"
